Reference: PubChem BioAssay AID1508624 (National Center for Advancing Translational Sciences (NCATS), 2021)
About 120 (0.25%) of roughly 48,000 compounds were called active. Another 4% or so got no clear call; they are omitted. Calls follow the shape of the dose curve; as a rule, active = well fitted activation curve with a large enough effect; inconclusive = small, poorly fitted or top-dose-only effect, or another doubt; inactive = no such curve, though single readings can be large or run the other way. Some of the results follow.

Assay: Primary qHTS for Identification of Small Molecule Activators of Huntingtin-Antisense Promoter Activity; also: nearly all actives have a fitted effect of over 55% in size
Settings: HEK293 HTT-AS promoter firefly luciferase reporter, 24 h; series mostly up to 57.5 µM; activity change, positive = activation: at the top concentration
Procedure, shortened: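 HEK293 Fluc reporter, 2,500 cells/well, 24 h pre-culture; cpds up to 57.5 uM final, 24 h 37 degrees C; Dual-Glo, 10 min RT; normalized vehicle = 0%, zero RLU = -100%.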

Activity change, positive = activation, inactive:
COc1cccc(NC(=O)CC2C(=O)OCCN2Cc2ccccc2)c1 (stereo not given) -23.8%
Cn1c(=O)[nH]c(=O)c2c1nc1n(CCO)c(-c3ccccc3)cn21 0.642%
O=C(CSc1nc2c(cnn2-c2ccc(F)cc2)c(=O)[nH]1)Nc1ccc(Br)cc1 -23.7%
CCCCOc1ccc(-c2cc3c(=O)n(CC(=O)Nc4ccc(Cl)cc4Cl)ccn3n2)cc1 -10.1%
Cc1ccc(-c2nn(CC(=O)NC3CCCCC3)c3c2cnc2ccc(F)cc23)cc1C -10.3%
CCOc1cccc2cc(-c3nnc(Nc4ccc(F)c(Cl)c4)s3)c(=O)oc12 -10.3%
CC(=O)c1ccc2c(c1)N(CCCN(C)C)c1ccccc1S2 -17.3%
COc1cccc(CNC(=O)c2cc(=O)[nH]c3ccc(S(=O)(=O)N4CCCCC4)cc23)c1 -10.7%
CC(C)C(=O)OC1=CN(Cc2ccccc2)S(=O)(=O)c2ccccc21 -6.29%
COc1ccccc1CNC(=O)c1ccc2c(c1)sc1nc(-c3ccc(F)cc3)cn12 -3.19%
Cc1cccc(C)c1Nc1c(-c2ccc(Cl)s2)nc2ncccn12 -32.2%
Cc1ccc(Cl)cc1NC(=O)CN(C)S(=O)(=O)c1ccc2c(c1)n(C)c(=O)c(=O)n2C 0.288%
O=C(Nc1ccc(SC(F)F)cc1)c1cc(-c2ccc3c(c2)OCCO3)on1 -63.8%
Cc1noc(Cn2c(=O)c3cc4c(cc3n(CC(=O)Nc3cccc(Cl)c3)c2=O)OCO4)n1 -11.3%
CCOc1ccc(CNC(=O)c2c(C)nn(-c3ccc(F)cc3)c2-n2cccc2)cc1 -25.3%
CC(=O)Nc1nonc1-c1nnc(SCC(=O)Nc2ccc(C)cc2C)n1C -11.7%
COc1ccc(NC(=O)[C@@H](c2ccccc2)N2Cc3ccccc3C2=O)cc1OC -2.6%
CN(C)CCOC(C)(c1ccccc1)c1ccccn1 (stereo not given) 0.911%
CC1CCc2c(sc(NC(=O)COc3ccccc3)c2C(=O)Nc2ccccc2Cl)C1 (stereo not given) 16.9% [at 11.5 µM, percent change from vehicle, -100% = no light]
C=CCNC(N)=S 1.74%
Cc1ccc(CSCC(=O)N2CCN(c3cc(Cl)ccc3C)CC2)cc1 -11.1%
Cc1ccc(-n2nc(C(=O)NCCN(C)C)c(=O)n(C)c2=O)cc1 -3.73%
COC(=O)CNC(=O)C(Cc1ccccc1)NS(=O)(=O)c1ccc2c(c1)c(=O)n(C)c(=O)n2C (stereo not given) -4.95%
Cc1c(Cl)cccc1NC(=O)c1cnc2sc(N3CCCC3)nn2c1=O -1.99%
Cc1ccc(NC(=O)Cn2c(=O)n(CCCCCC(=O)NCc3ccc(F)cc3)c(=O)c3sccc32)c(C)c1 -11.6%
CCN(C(=O)C1CCN(S(=O)(=O)c2ccc3c(c2)CCCN3C(=O)C2CCC2)CC1)c1cccc(C)c1 -1.38%
COCCN1Cc2cccc(C(=O)Nc3ccc(C)cc3C)c2C1=O -8.26%
Cc1cc2c(cc1S(=O)(=O)N1CCC(C)CC1)OCC(=O)N2 -23.4%
Cc1c(C(=O)NCc2ccc(N(C)C)cc2)oc2c1-c1nn(Cc3cccc(Cl)c3)cc1CC2 -26.7%
O=C(COc1ccccc1)Nc1ccc(S(=O)(=O)N(Cc2ccccc2)c2ccccc2)cc1 2.57%
CCCC12CN3CC(CCC)(CN(C1)C3c1c[nH]c3ccccc13)C2=O (stereo not given) 0.531%
Cc1ccc(-c2nnc(SCC(=O)N3CCc4ccccc43)o2)cc1 -6.4%
COc1ccc(-c2nc(-c3ccccc3)c(-c3ccccc3)[nH]2)cc1Br -24.3%
Oc1c(I)cc(Cl)c2cccnc12 -4.58%
Cc1cc(C)cc(NC(=O)Cn2c(=O)oc3cc(S(=O)(=O)N4CCCC4)ccc32)c1 -33.2%
O=S(=O)(c1ccc2ccccc2c1)n1nc(-c2ccco2)nc1NCc1cccc(Cl)c1 -8.28%
Cc1ccc(CNC(=O)c2ccc3c(c2)N(Cc2ccccc2F)C(=O)c2ccccc2S3(=O)=O)cc1 -16.1%
COc1ccc(S(=O)(=O)c2cn(C)c3cc(N4CCCC4)c(F)cc3c2=O)cc1 -14.9%
COc1cccc(CNC(=O)c2cnc(N3CCCC3)nc2C)c1 -2.8%
COc1ccc(CCNC(=O)c2cc(-c3ccccc3)nc3ccccc23)cc1OC -25.5%
CCn1cc(C(=O)OCC(=O)Nc2cc(C)cc(C)c2)c(=O)c2ccc(C)nc21 -0.276%
COC(=O)c1scc(-c2ccc(C)cc2)c1S(=O)(=O)Nc1cccc(C(F)(F)F)c1 24.2%
COC(=O)c1sc2cccc(F)c2c1S(=O)(=O)Nc1cc(OC)cc(OC)c1 -9.24%
O=C(CSc1nc2ccccc2c(=O)n1CCC(=O)NC1CCCCC1)Nc1ccccc1Cl -3.07%
Cc1nn(CCCC(=O)NCc2ccccc2)c(=O)c2nn(-c3ccccc3)c(C)c12 -4.58%
C[C@@H](O)[C@H]1C(=O)N2C(C(=O)O)=C(S[C@@H]3CN[C@H](CNS(N)(=O)=O)C3)[C@H](C)[C@H]12 -7.43%
CCC(=O)N1CCc2cc(S(=O)(=O)NCCC(=O)Nc3ccc(OC)c(Cl)c3)ccc21 -12.9%
O=C(CSc1cn(CC(=O)N2CCCCCC2)c2ccccc12)Nc1ccccc1F -41.5%
CCc1nnc2c(NCc3ccccc3OC)nc3ccccc3n12 -10.3%
CC(C)c1nnc(N2C(=O)c3oc4ccccc4c(=O)c3C2c2cccc(O)c2)s1 (stereo not given) 4.04% [at 11.5 µM, percent change from vehicle, -100% = no light]
CCOc1ccc(CC(=O)Nc2nnc3n2CCS3)cc1 -8.19%
COc1cc2nccc(Oc3ccc(NC(=O)Nc4cc(C)on4)c(Cl)c3)c2cc1OC -43.7%
COc1ccc(C(=O)c2cn(Cc3ccc(C)cc3)c3cc4c(cc3c2=O)OCO4)cc1 -21.2%
O=C(CSc1cn(CC(=O)N2CCCCC2)c2ccccc12)Nc1ccccc1F -21%
COc1ccccc1-c1noc(CSc2nc3ccc(C)cc3[nH]2)n1 -39.3%
COc1cc(NC(=O)CCS(=O)(=O)c2nc(-c3cccs3)cc(C(F)(F)F)n2)cc(OC)c1OC -36.5%
Cc1c(Cl)cccc1NC(=O)CCn1c(=O)c2cccn2c2ccccc21 -14.3%
Cc1ccc2c(CC(=O)Nc3ccccc3C(F)(F)F)coc2c1C -5.61%
CC(CNC(=O)C1CCN(Cc2cc3ccccc3n2Cc2ccccc2)CC1)c1ccccc1 (stereo not given) -26.2%
CCOc1ccccc1NC(=O)CSc1nccn1-c1ccc(Cl)cc1 -13.1%
